# In the supplement of paper PMC11876631:
# ± gives the standard deviation of the averaged measurements. Laboratory Escherichia coli strains with one amino-acid change in an essential protein, pooled on minimal glucose agar with carbenicillin or gentamicin at twice the control MIC (plus kanamycin and chloramphenicol for the plasmids), 48 h. Fold change of barcode share against drug-free plates; higher = less susceptible. Active = above 20 in both replicates (the paper's putatively resistant). '<' = one read or none on drug, '>' = one read or none on a drug-free plate. Shares are relative, so most strains fall below 1 when a few take over. Listed are strains with at least 15 reads on both drug-free plates, and hits; most hits rest on fewer reference reads. Replicate rank correlation about 0.5. Edits are read from barcodes.
# B1: nadE L196Q (protein)
# chain: MTLQQQIIKALGAKPQINAEEEIRRSVDFLKSYLQTYPFIKSLVLGISGGQDSTLAGKLCQMAINELRLETGNESLQFIAVRLPYGVQADEQDCQDAIAFIQPDRVLTVNIKGAVLASEQALREAGIELSDFVRGNEKARERMKAQYSIAGMTSGVVVGTDHAAEAITGFFTKYGDGGTDINPLYRLNKRQGKQLQAALACPEHLYKKAPTADLEDDRPSLPDEVALGVTYDNIDDYLEGKNVPQQVARTIENWYLKTEHKRRPPITVFDDFWKK
# B2: nrdA V289A (protein)
# chain: MNQNLLVTKRDGSTERINLDKIHRVLDWAAEGLHNVSISQVELRSHIQFYDGIKTSDIHETIIKAAADLISRDAPDYQYLAARLAIFHLRKKAYGQFEPPALYDHVVKMVEMGKYDNHLLEDYTEEEFKQMDTFIDHDRDMTFSYAAVKQLEGKYLVQNRVTGEIYESAQFLYILVAACLFSNYPRETRLQYVKRFYDAVSTFKISLPTPIMSGVRTPTRQFSSCVLIECGDSLDSINATSSAIVKYVSQRAGIGINAGRIRALGSPIRGGEAFHTGCIPFYKHFQTAAKSCSQGGVRGGAATLFYPMWHLEVESLLVLKNNRGVEGNRVRHMDYGVQINKLMYTRLLKGEDITLFSPSDVPGLYDAFFADQEEFERLYTKYEKDDSIRKQRVKAVELFSLMMQERASTGRIYIQNVDHCNTHSPFDPAIAPVRQSNLCLEIALPTKPLNDVNDENGEIALCTLSAFNLGAINNLDELEELAILAVRALDALLDYQDYPIPAAKRGAMGRRTLGIGVINFAYYLAKHGKRYSDGSANNLTHKTFEAIQYYLLKASNELAKEQGACPWFNETTYAKGILPIDTYKKDLDTIANEPLHYDWEALRESIKTHGLRNSTLSALMPSETSSQISNATNGIEPPRGYVSIKASKDGILRQVVPDYEHLHDAYELLWEMPGNDGYLQLVGIMQKFIDQSISANTNYDPSRFPSGKVPMQQLLKDLLTAYKFGVKTLYYQNTRDGAEDAQDDLVPSIQDDGCESGACKI
# B3: nrdA V289Q (protein)
# chain: MNQNLLVTKRDGSTERINLDKIHRVLDWAAEGLHNVSISQVELRSHIQFYDGIKTSDIHETIIKAAADLISRDAPDYQYLAARLAIFHLRKKAYGQFEPPALYDHVVKMVEMGKYDNHLLEDYTEEEFKQMDTFIDHDRDMTFSYAAVKQLEGKYLVQNRVTGEIYESAQFLYILVAACLFSNYPRETRLQYVKRFYDAVSTFKISLPTPIMSGVRTPTRQFSSCVLIECGDSLDSINATSSAIVKYVSQRAGIGINAGRIRALGSPIRGGEAFHTGCIPFYKHFQTAQKSCSQGGVRGGAATLFYPMWHLEVESLLVLKNNRGVEGNRVRHMDYGVQINKLMYTRLLKGEDITLFSPSDVPGLYDAFFADQEEFERLYTKYEKDDSIRKQRVKAVELFSLMMQERASTGRIYIQNVDHCNTHSPFDPAIAPVRQSNLCLEIALPTKPLNDVNDENGEIALCTLSAFNLGAINNLDELEELAILAVRALDALLDYQDYPIPAAKRGAMGRRTLGIGVINFAYYLAKHGKRYSDGSANNLTHKTFEAIQYYLLKASNELAKEQGACPWFNETTYAKGILPIDTYKKDLDTIANEPLHYDWEALRESIKTHGLRNSTLSALMPSETSSQISNATNGIEPPRGYVSIKASKDGILRQVVPDYEHLHDAYELLWEMPGNDGYLQLVGIMQKFIDQSISANTNYDPSRFPSGKVPMQQLLKDLLTAYKFGVKTLYYQNTRDGAEDAQDDLVPSIQDDGCESGACKI
# B4: nrdA V226A (protein)
# chain: MNQNLLVTKRDGSTERINLDKIHRVLDWAAEGLHNVSISQVELRSHIQFYDGIKTSDIHETIIKAAADLISRDAPDYQYLAARLAIFHLRKKAYGQFEPPALYDHVVKMVEMGKYDNHLLEDYTEEEFKQMDTFIDHDRDMTFSYAAVKQLEGKYLVQNRVTGEIYESAQFLYILVAACLFSNYPRETRLQYVKRFYDAVSTFKISLPTPIMSGVRTPTRQFSSCALIECGDSLDSINATSSAIVKYVSQRAGIGINAGRIRALGSPIRGGEAFHTGCIPFYKHFQTAVKSCSQGGVRGGAATLFYPMWHLEVESLLVLKNNRGVEGNRVRHMDYGVQINKLMYTRLLKGEDITLFSPSDVPGLYDAFFADQEEFERLYTKYEKDDSIRKQRVKAVELFSLMMQERASTGRIYIQNVDHCNTHSPFDPAIAPVRQSNLCLEIALPTKPLNDVNDENGEIALCTLSAFNLGAINNLDELEELAILAVRALDALLDYQDYPIPAAKRGAMGRRTLGIGVINFAYYLAKHGKRYSDGSANNLTHKTFEAIQYYLLKASNELAKEQGACPWFNETTYAKGILPIDTYKKDLDTIANEPLHYDWEALRESIKTHGLRNSTLSALMPSETSSQISNATNGIEPPRGYVSIKASKDGILRQVVPDYEHLHDAYELLWEMPGNDGYLQLVGIMQKFIDQSISANTNYDPSRFPSGKVPMQQLLKDLLTAYKFGVKTLYYQNTRDGAEDAQDDLVPSIQDDGCESGACKI
# B5: nrdA V226Q (protein)
# chain: MNQNLLVTKRDGSTERINLDKIHRVLDWAAEGLHNVSISQVELRSHIQFYDGIKTSDIHETIIKAAADLISRDAPDYQYLAARLAIFHLRKKAYGQFEPPALYDHVVKMVEMGKYDNHLLEDYTEEEFKQMDTFIDHDRDMTFSYAAVKQLEGKYLVQNRVTGEIYESAQFLYILVAACLFSNYPRETRLQYVKRFYDAVSTFKISLPTPIMSGVRTPTRQFSSCQLIECGDSLDSINATSSAIVKYVSQRAGIGINAGRIRALGSPIRGGEAFHTGCIPFYKHFQTAVKSCSQGGVRGGAATLFYPMWHLEVESLLVLKNNRGVEGNRVRHMDYGVQINKLMYTRLLKGEDITLFSPSDVPGLYDAFFADQEEFERLYTKYEKDDSIRKQRVKAVELFSLMMQERASTGRIYIQNVDHCNTHSPFDPAIAPVRQSNLCLEIALPTKPLNDVNDENGEIALCTLSAFNLGAINNLDELEELAILAVRALDALLDYQDYPIPAAKRGAMGRRTLGIGVINFAYYLAKHGKRYSDGSANNLTHKTFEAIQYYLLKASNELAKEQGACPWFNETTYAKGILPIDTYKKDLDTIANEPLHYDWEALRESIKTHGLRNSTLSALMPSETSSQISNATNGIEPPRGYVSIKASKDGILRQVVPDYEHLHDAYELLWEMPGNDGYLQLVGIMQKFIDQSISANTNYDPSRFPSGKVPMQQLLKDLLTAYKFGVKTLYYQNTRDGAEDAQDDLVPSIQDDGCESGACKI
# B6: nrdA L26A (protein)
# chain: MNQNLLVTKRDGSTERINLDKIHRVADWAAEGLHNVSISQVELRSHIQFYDGIKTSDIHETIIKAAADLISRDAPDYQYLAARLAIFHLRKKAYGQFEPPALYDHVVKMVEMGKYDNHLLEDYTEEEFKQMDTFIDHDRDMTFSYAAVKQLEGKYLVQNRVTGEIYESAQFLYILVAACLFSNYPRETRLQYVKRFYDAVSTFKISLPTPIMSGVRTPTRQFSSCVLIECGDSLDSINATSSAIVKYVSQRAGIGINAGRIRALGSPIRGGEAFHTGCIPFYKHFQTAVKSCSQGGVRGGAATLFYPMWHLEVESLLVLKNNRGVEGNRVRHMDYGVQINKLMYTRLLKGEDITLFSPSDVPGLYDAFFADQEEFERLYTKYEKDDSIRKQRVKAVELFSLMMQERASTGRIYIQNVDHCNTHSPFDPAIAPVRQSNLCLEIALPTKPLNDVNDENGEIALCTLSAFNLGAINNLDELEELAILAVRALDALLDYQDYPIPAAKRGAMGRRTLGIGVINFAYYLAKHGKRYSDGSANNLTHKTFEAIQYYLLKASNELAKEQGACPWFNETTYAKGILPIDTYKKDLDTIANEPLHYDWEALRESIKTHGLRNSTLSALMPSETSSQISNATNGIEPPRGYVSIKASKDGILRQVVPDYEHLHDAYELLWEMPGNDGYLQLVGIMQKFIDQSISANTNYDPSRFPSGKVPMQQLLKDLLTAYKFGVKTLYYQNTRDGAEDAQDDLVPSIQDDGCESGACKI
# B7: nrdA L26W (protein)
# chain: MNQNLLVTKRDGSTERINLDKIHRVWDWAAEGLHNVSISQVELRSHIQFYDGIKTSDIHETIIKAAADLISRDAPDYQYLAARLAIFHLRKKAYGQFEPPALYDHVVKMVEMGKYDNHLLEDYTEEEFKQMDTFIDHDRDMTFSYAAVKQLEGKYLVQNRVTGEIYESAQFLYILVAACLFSNYPRETRLQYVKRFYDAVSTFKISLPTPIMSGVRTPTRQFSSCVLIECGDSLDSINATSSAIVKYVSQRAGIGINAGRIRALGSPIRGGEAFHTGCIPFYKHFQTAVKSCSQGGVRGGAATLFYPMWHLEVESLLVLKNNRGVEGNRVRHMDYGVQINKLMYTRLLKGEDITLFSPSDVPGLYDAFFADQEEFERLYTKYEKDDSIRKQRVKAVELFSLMMQERASTGRIYIQNVDHCNTHSPFDPAIAPVRQSNLCLEIALPTKPLNDVNDENGEIALCTLSAFNLGAINNLDELEELAILAVRALDALLDYQDYPIPAAKRGAMGRRTLGIGVINFAYYLAKHGKRYSDGSANNLTHKTFEAIQYYLLKASNELAKEQGACPWFNETTYAKGILPIDTYKKDLDTIANEPLHYDWEALRESIKTHGLRNSTLSALMPSETSSQISNATNGIEPPRGYVSIKASKDGILRQVVPDYEHLHDAYELLWEMPGNDGYLQLVGIMQKFIDQSISANTNYDPSRFPSGKVPMQQLLKDLLTAYKFGVKTLYYQNTRDGAEDAQDDLVPSIQDDGCESGACKI
# B8: nrdA L26D (protein)
# chain: MNQNLLVTKRDGSTERINLDKIHRVDDWAAEGLHNVSISQVELRSHIQFYDGIKTSDIHETIIKAAADLISRDAPDYQYLAARLAIFHLRKKAYGQFEPPALYDHVVKMVEMGKYDNHLLEDYTEEEFKQMDTFIDHDRDMTFSYAAVKQLEGKYLVQNRVTGEIYESAQFLYILVAACLFSNYPRETRLQYVKRFYDAVSTFKISLPTPIMSGVRTPTRQFSSCVLIECGDSLDSINATSSAIVKYVSQRAGIGINAGRIRALGSPIRGGEAFHTGCIPFYKHFQTAVKSCSQGGVRGGAATLFYPMWHLEVESLLVLKNNRGVEGNRVRHMDYGVQINKLMYTRLLKGEDITLFSPSDVPGLYDAFFADQEEFERLYTKYEKDDSIRKQRVKAVELFSLMMQERASTGRIYIQNVDHCNTHSPFDPAIAPVRQSNLCLEIALPTKPLNDVNDENGEIALCTLSAFNLGAINNLDELEELAILAVRALDALLDYQDYPIPAAKRGAMGRRTLGIGVINFAYYLAKHGKRYSDGSANNLTHKTFEAIQYYLLKASNELAKEQGACPWFNETTYAKGILPIDTYKKDLDTIANEPLHYDWEALRESIKTHGLRNSTLSALMPSETSSQISNATNGIEPPRGYVSIKASKDGILRQVVPDYEHLHDAYELLWEMPGNDGYLQLVGIMQKFIDQSISANTNYDPSRFPSGKVPMQQLLKDLLTAYKFGVKTLYYQNTRDGAEDAQDDLVPSIQDDGCESGACKI
# Biological target: Escherichia coli (laboratory strain)
# Test: barcode share on antibiotic plates over drug-free plates; higher = less susceptible
# Details: antibiotic: carbenicillin; 2× MIC (3.1 µg/mL)
# Protocol: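 A pool of E. coli strains, each edited to carry one amino-acid change in an essential protein, was grown for 48 h on minimal glucose agar with or without antibiotic; strain barcodes were sequenced; mean of two replicates.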
row,Protein,fold change of barcode share
1,B1,0.214 ± 0.14
2,B2,0.156 ± 0.14
3,B3,0.108 ± 0.082
4,B4,1.23 ± 0.33
5,B5,0.126 ± 0.013
6,B6,0.223 ± 0.14
7,B7,0.158 ± 0.078
8,B8,0.481 ± 0.45

# Same assay, conditions: antibiotic: gentamicin; 2× MIC (MIC 0.45 µg/mL)
row,Protein,fold change of barcode share
1,B2,< 0.0136
2,B3,< 0.0163
3,B4,< 0.00278
4,B5,< 0.00354
5,B6,< 0.0121
